Measured values as given in the supplement of paper PMC10326071.
Some of the results follow. Most values come without repeats; read them as rough.

What follows are compounds tested on SARS-CoV-2 nsp3 SARS-unique domain core (SUD-core, nsp3 residues 413-676) (assay: dissociation rate constant koff (BLI); higher = faster dissociation). Settings: 100 µM; 25 °C.
Experimental: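 Primary BLI (Octet RED96e) screen of MedChemExpress Nucleotide Compound and Kinase Inhibitor libraries (1770 compounds) against biotinylated SARS-CoV-2 SUD-core on SSA biosensors. Each compound was tested once at 100 uM in PBS pH 7.4, 1% DMSO; 150 s association, 180 s dissociation, 25 C. Kd and koff are apparent values from single-concentration 1:1 fits. Only fits with full R^2 >= 0.9 are kept; fits at the software floor (<1e-12 M, <1e-7 /s) and placeholder values are excluded.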

Row | Compound | dissociation rate constant koff [s⁻¹]
1 | COCCNCCc1cccc(Nc2ncc3c(n2)-c2ccccc2[C@H](c2ccccc2F)C3)c1 | 0.00641
2 | OC[C@H]1O[C@@H](n2cnc3c(NC4CCCC4)ncnc32)[C@H](O)[C@@H]1O | 0.256
3 | Cc1cccc(-c2[nH]ncc2-c2ccc(F)c(-c3cnn(CCO)c3)c2)n1 | 0.252
4 | CN(C)CCCn1cc(C2=C(c3c[nH]c4ccccc34)C(=O)NC2=O)c2ccccc21 | 0.37
5 | CCC(=O)N1CCN(c2ccc(-n3c(=O)ccc4cnc5ccc(-c6cnc7ccccc7c6)cc5c43)cc2C(F)(F)F)CC1 | 0.0642
6 | O=c1c(-c2ccc(O)cc2)coc2cc(O)cc(O)c12 | 0.243
7 | O=C(NCCCNc1nc(Nc2cccc(CN3CCOCC3)c2)ncc1C1CC1)C1CCC1 | 0.158
8 | CCS(=O)(=O)Nc1ccc2[nH]c(O)c(C(=Nc3ccc(CN4CCCCC4)cc3)c3ccccc3)c2c1 | 0.0347
9 | C[C@@H](Oc1cc(-c2cnn(C3CCNCC3)c2)cnc1N)c1c(Cl)ccc(F)c1Cl | 0.518
10 | N#Cc1ccc2ncnc(NCCc3ccccc3)c2c1 | 0.604
11 | CNC(=O)c1ccc(-c2cnc3cnc(C(=O)N(C)c4ccc(Cl)cc4)cn23)cc1 | 0.523
12 | Nc1ncnc2c1c(-c1cccc(OCc3ccccc3)c1)cn2C1CC(CN2CCC2)C1 (stereo not given) | 0.0271
13 | COC[C@](CO)(OC[C@H]1O[C@@H](n2ncc3c(NC4CCCC4)nc(Cl)nc32)[C@H](O)[C@@H]1O)P(=O)(O)O | 0.49
14 | CCOc1cc(N2CCC(O)CC2)ccc1Nc1ncc2c(n1)N(C)c1ccccc1C(=O)N2C | 0.0679
15 | O=C(NCCN1CCOCC1)Nc1nc2ccc(Sc3nnc4ccc(-c5ccc(F)cc5)nn34)cc2s1 | 0.103
16 | COc1ccc(C(OC[C@H]2O[C@@H](n3ccc(NC(C)=O)nc3=O)C[C@@H]2O)(c2ccccc2)c2ccc(OC)cc2)cc1 | 0.164
17 | Cc1nn(CC(F)(F)F)cc1Nc1ncc(Br)c(NCc2ccc(S(N)(=O)=O)cc2)n1 | 1
18 | O=c1cc(N2CCOCC2)oc2c(-c3ccc4c(c3)OCCO4)csc12 | 0.358
19 | N#Cc1ccc(COc2ccc(-c3cccc4nc(NC(=O)C5CC5)nn34)cc2)cn1 | 0.0372
20 | Oc1cc(O)cc(/C=C/c2ccc(O)c(O)c2)c1 | 0.00256

Row | Compound | dissociation rate constant koff [s⁻¹]
21 | C[C@H]1CC[C@]2(NC1)O[C@H]1C[C@H]3[C@@H]4CC[C@H]5C[C@@H](O)CC[C@]5(C)[C@H]4CC[C@]3(C)[C@H]1[C@@H]2C | 0.223
22 | COc1c(B(O)O)cccc1-c1nc2ccc3[nH]ncc3c2c2c1CCC2 | 0.0445
23 | N#Cc1cn([C@@H]2O[C@H](CO)[C@@H](O)[C@H]2O)c2nc[nH]c(=O)c12 | 0.0129
24 | Cc1nc(Nc2ncc(C(=O)Nc3c(C)cccc3Cl)s2)cc(N2CCN(C(=O)COCCOCCOCCNC(=O)[C@H](CC(C)C)NC(=O)[C@@H](O)[C@H](N)Cc3ccccc3)CC2)n1 | 0.0647
25 | Cc1ccc2c(Nc3ccc(Cl)cc3)nccc2c1Nc1ncccc1-c1ncnc2nc[nH]c12 | 0.0255
26 | Nc1nc2c(ncn2COCCO)c(=O)[nH]1 | 0.0136
27 | Nc1cccc(-c2cc3c(Oc4cccc(O)c4)ncnc3[nH]2)c1 | 0.446
28 | C[C@H]1CN(C2COC2)CCN1c1ccc(Nc2cc(-c3ccnc(N4CCn5c(cc6c5CC(C)(C)C6)C4=O)c3CO)cn(C)c2=O)nc1 | 0.051
29 | O=c1ccoc2cc(O)ccc12 | 0.0395
30 | O=C(O)c1nn(Cc2ccc(Cl)cc2Cl)c2ccccc12 | 0.259
31 | NC(=O)c1cccc(-c2cc(Nc3ccc(OC(F)(F)F)cc3)ncn2)c1 | 1.14
32 | COCCNCc1ccc(-c2cc3nccc(Oc4ccc(NC(=S)NC(=O)Cc5ccc(F)cc5)cc4F)c3s2)nc1 | 0.0362
33 | CCn1c(=O)c(-c2ccc(Cl)cc2Cl)cc2cnc(Nc3ccc(N4CCNCC4)c(F)c3)nc21 | 0.00537
34 | Cc1cc(O)c(-c2ccc([C@@H](C)CN(C)C)cc2)c2c1[nH]c(=O)c1sccc12 | 0.288
35 | CC(C)Oc1cc(Nc2nc(N[C@@H](C)c3ccc(F)cn3)ncc2Cl)[nH]n1 | 0.119
36 | CCCS(=O)(=O)Nc1ccc(F)c(-n2cc(-c3cncnc3)c3nc(N(C)C4CCN(CC)CC4)ccc32)c1F | 0.474
37 | O=C(NCCO)c1cccc(-c2cc(Nc3ccc(OC(F)(F)F)cc3)ncn2)c1 | 0.172
38 | COCCOCCc1c(C)c2cc(OC)c(O)c(C=O)c2oc1=O | 0.405
39 | Cc1nc2ccc(-n3ncc(C(=O)c4cc5ccccc5[nH]4)c3N)cc2[nH]1 | 0.0601
40 | COc1c(Nc2ncc(Cl)c(N[C@H]3[C@@H](C(N)=O)[C@@H]4C=C[C@H]3C4)n2)ccc2c1CC[C@@H](N1CCOCC1)CC2 | 0.0466
